System: Vcap cells (androgen receptor (+) prostate cancer cells)
Experiment: CTG cell proliferation assay (CellTiter-Glo), compounds alone or in combination
[1] = 1 μM tested compound in combination with 1 μM B001 and 1 μM prednisone
[2] = 10 μM tested compound in combination with 1 μM B001 and 1 μM Galeterone

SMILES | Survival rate of Vcap cells (1 μM tested compound in combination with 1 μM B001 and 1 μM Abiraterone acetate) [%] | Survival rate of Vcap cells (1 μM tested compound in combination with 1 μM B001 and 1 μM Galeterone) [%] | Survival rate of Vcap cells (1 μM tested compound in combination with 1 μM B001 and 1 μM ODM-201) [%] | Survival rate of Vcap cells [1] [%] | Survival rate of Vcap cells (10 μM tested compound in combination with 1 μM B001 and 1 μM Abiraterone acetate) [%] | Survival rate of Vcap cells [2] [%] | Survival rate of Vcap cells (10 μM tested compound in combination with 1 μM B001 and 1 μM ODM-201) [%] | Survival rate of Vcap cells (10 μM tested compound in combination with 1 μM B001 and 1 μM prednisone) [%]
CC1(C)C(=O)N(c2ccc(C#N)c(C(F)(F)F)c2F)C(=S)N1c1ccc(CCCC#N)c(F)c1 [AR2-4] | 52.7 | 52.9 | 55.8 | 55.6 | 33.3 | 30.7 | 33.9 | 
CC1(C)C(=O)N(c2ccc(C#N)c(C(F)(F)F)c2)C(=S)N1c1ccc(OC[C@@H](O)CO)cc1 [AR3-3] |  |  |  | 68.4 |  | 48.1 |  | 49.1
